# Reference: patent publication US11655268B2, “Nucleoside or nucleotide derivatives, and uses thereof” (ST Pharm Co., Ltd., priority 2018, dated 2023)
# Key:
# [1] = test system: Influenza virus A/Puerto Rico/8/34 (H1N1); test: Cytopathic effect reduction, influenza A H1N1 (PR8) in MDCK cells, MTT; conditions: for Selectivity index FluA H1N1 (PR8): CC50/EC50; for EC50: read-out: Anti-Flu activity EC50 FluA H1N1 (PR8), MDCK cells, day 3 post-infection
# [2] = test system: Influenza virus A/HongKong/8/68 (H3N2); test: Cytopathic effect reduction, influenza A H3N2 (Hong Kong) in MDCK cells, MTT; conditions: for Selectivity index FluA H3N2 (Hong Kong): CC50/EC50; for EC50: read-out: Anti-Flu activity EC50 FluA H3N2 (Hong Kong), MDCK cells, day 3 post-infection
SMILES,Selectivity index FluA H1N1 (PR8) [1],EC50 [1] [µM],Selectivity index FluA H3N2 (Hong Kong) [2],EC50 [2] [µM]
"O=C(Nc1ccn(C2O[C@H](CO)[C@@H](O)[C@H]2F)c(=O)n1)c1cccc(-c2ccccc2)n1 (stereo in doubt) [Example 27, N-(1-((2S,3R,4R,5R)-3-fluoro-4-hydroxy-5-(hydroxymethyl)tetrahydrofuran-2-yl)-2-oxo-1,2-dihydropyrimidin-4-yl)-6-phenylpicolinamide]",>5.0,20.1,>6.4,15.7
"NC(=O)c1ncn([C@@H]2O[C@H](CO)[C@@H](O)[C@H]2O)n1 [RBV, ribavirin, reference compound]",,42.6,,21.2
"O=C(Nc1ccn(C2O[C@H](CO)[C@@H](O)[C@H]2F)c(=O)n1)c1ccc([N+](=O)[O-])cn1 (stereo in doubt) [Example 30, N-(1-((2S,3R,4R,5R)-3-fluoro-4-hydroxy-5-(hydroxymethyl)tetrahydrofuran-2-yl)-2-oxo-1,2-dihydropyrimidin-4-yl)-5-nitropicolinamide]",>5.1,19.5,>28.6,3.5
"O=C(Nc1ccn(C2O[C@H](CO)[C@@H](O)[C@H]2F)c(=O)n1)c1ccc(C(F)(F)F)nc1 (stereo in doubt) [Example 41, N-(1-((2S,3R,4R,5R)-3-fluoro-4-hydroxy-5-(hydroxymethyl)tetrahydrofuran-2-yl)-2-oxo-1,2-dihydropyrimidin-4-yl)-6-(trifluoromethyl)nicotinamide]",>2.2,46.3,>6.3,16
"Cc1nccc(C(=O)Nc2ccn([C@@H]3O[C@H](CO)[C@@H](O)C3(F)F)c(=O)n2)n1 [Example 24, N-(1-((2R,4R,5R)-3,3-difluoro-4-hydroxy-5-(hydroxymethyl)tetrahydrofuran-2-yl)-2-oxo-1,2-dihydropyrimidin-4-yl)-2-methylpyrimidin-4-carboxamide]",>83.3,< 1.2,>45.5,2.2
"Cc1cccc(C(=O)Nc2ccn([C@@H]3O[C@H](CO)[C@@H](O)C3(F)F)c(=O)n2)n1 [Example 13, N-(1-((2R,4R,5R)-3,3-difluoro-4-hydroxy-5-(hydroxymethyl)tetrahydrofuran-2-yl)-2-oxo-1,2-dihydropyrimidin-4-yl)-6-methylpicolinamide]",>11.0,9.1,>14.1,7.1
"Cc1nccc(C(=O)Nc2ccn(C3O[C@H](CO)[C@@H](O)[C@H]3F)c(=O)n2)n1 (stereo in doubt) [Example 29, N-(1-((2S,3R,4R,5R)-3-fluoro-4-hydroxy-5-(hydroxymethyl)tetrahydrofuran-2-yl)-2-oxo-1,2-dihydropyrimidin-4-yl)-2-methylpyrimidin-4-carboxamide]",>6.5,15.4,>38.5,2.6
"O=C(Nc1ccn([C@@H]2O[C@H](CO)[C@@H](O)C2(F)F)c(=O)n1)c1ccc(-c2ccccc2)cn1 [Example 25, N-(1-((2R,4R,5R)-3,3-difluoro-4-hydroxy-5-(hydroxymethyl)tetrahydrofuran-2-yl)-2-oxo-1,2-dihydropyrimidin-4-yl)-5-phenylpicolinamide]",>15.4,6.5,>10.5,9.5
"Cc1ccc(C(=O)Nc2ccn([C@@H]3O[C@H](CO)[C@@H](O)C3(F)F)c(=O)n2)nc1 [Example 10, N-(1-((2R,4R,5R)-3,3-difluoro-4-hydroxy-5-(hydroxymethyl)tetrahydrofuran-2-yl)-2-oxo-1,2-dihydropyrimidin-4-yl)-5-methylpicolinamide]",>6.2,16.1,>8.8,11.4
"O=C(Nc1ccn([C@@H]2O[C@H](CO)[C@@H](O)C2(F)F)c(=O)n1)c1cccnn1 [Example 5, N-(1-((2R,4R,5R)-3,3-difluoro-4-hydroxy-5-(hydroxymethyl)tetrahydrofuran-2-yl)-2-oxo-1,2-dihydropyrimidin-4-yl)pyridazine-3-carboxamide]",>136.4,2.2,>157.9,1.9
"O=C(Nc1ccn([C@@H]2O[C@H](CO)[C@@H](O)C2(F)F)c(=O)n1)c1cccnc1 [Example 1, N-(1-((2R,4R,5R)-3,3-difluoro-4-hydroxy-5-(hydroxymethyl)tetrahydrofuran-2-yl)-2-oxo-1,2-dihydropyrimidin-4-yl)nicotinamide]",>14.3,21,,
"O=C(Nc1ccn([C@@H]2O[C@H](CO)[C@@H](O)C2(F)F)c(=O)n1)c1ccc([N+](=O)[O-])cn1 [Example 19, N-(1-((2R,4R,5R)-3,3-difluoro-4-hydroxy-5-(hydroxymethyl)tetrahydrofuran-2-yl)-2-oxo-1,2-dihydropyrimidin-4-yl)-5-nitropicolinamide]",>71.4,1.4,>50.0,2
O=C1CCCN1c1ccn([C@@H]2O[C@H](CO)[C@@H](O)C2(F)F)c(=O)n1 [Example 7],>7.1,14.1,>6.5,15.4
"Cl.Nc1ccc(C(=O)Nc2ccn([C@@H]3O[C@H](CO)[C@@H](O)C3(F)F)c(=O)n2)nc1 [Example 20, 5-amino-N-(1-((2R,4R,5R)-3,3-difluoro-4-hydroxy-5-(hydroxymethyl)tetrahydrofuran-2-yl)-2-oxo-1,2-dihydropyrimidin-4-yl)picolinamide-hydrochloride]",>10.3,9.7,>5.3,18.8
"N#Cc1ccc(C(=O)Nc2ccn(C3O[C@H](CO)[C@@H](O)[C@H]3F)c(=O)n2)nc1 (stereo in doubt) [Example 37, 5-cyano-N-(1-((2S,3R,4R,5R)-3-fluoro-4-hydroxy-5-(hydroxymethyl)tetrahydrofuran-2-yl)-2-oxo-1,2-dihydropyrimidin-4-yl)picolinamide]",>2.1,47.3,>16.7,6
"O=C(Nc1ccn(C2O[C@H](CO)[C@@H](O)[C@H]2F)c(=O)n1)c1ccc(F)cn1 (stereo in doubt) [Example 35, 5-Fluoro-N-(1-((2S,3R,4R,5R)-3-fluoro-4-hydroxy-5-(hydroxymethyl)tetrahydrofuran-2-yl)-2-oxo-1,2-dihydropyrimidin-4-yl)picolinamide]",>1.5,65.5,>5.2,19.2
"O=C(Nc1ccn(C2O[C@H](CO)[C@@H](O)[C@H]2F)c(=O)n1)c1ccncn1 (stereo in doubt) [Example 36, N-(1-((2S,3R,4R,5R)-3-fluoro-4-hydroxy-5-(hydroxymethyl)tetrahydrofuran-2-yl)-2-oxo-1,2-dihydropyrimidin-4-yl)pyrimidine-4-carboxamide]",>3.0,33.3,>14.7,6.8
"COc1ccc(C(=O)Nc2ccn([C@@H]3O[C@H](CO)[C@@H](O)C3(F)F)c(=O)n2)cn1 [Example 22, N-(1-((2R,4R,5R)-3,3-difluoro-4-hydroxy-5-(hydroxymethyl)tetrahydrofuran-2-yl)-2-oxo-1,2-dihydropyrimidin-4-yl)-6-methoxynicotinamide]",>5.0,20.1,>2.7,36.4
"CCC(CC)O[C@@H]1C=C(C(=O)O)C[C@H](N)[C@H]1NC(C)=O [OSV-C, oseltamivir carboxylate, reference compound]",,0.09,,< 0.005
"O=C(Nc1ccn(C2O[C@H](CO)[C@@H](O)[C@H]2F)c(=O)n1)c1ccc(F)nc1 (stereo in doubt) [Example 42, 6-Fluoro-N-(1-((2S,3R,4R,5R)-3-fluoro-4-hydroxy-5-(hydroxymethyl)tetrahydrofuran-2-yl)-2-oxo-1,2-dihydropyrimidin-4-yl)nicotinamide]",>2.2,46.2,>5.6,17.9
"O=C(Nc1ccn([C@@H]2O[C@H](CO)[C@@H](O)C2(F)F)c(=O)n1)c1cccc(-c2ccccc2)n1 [Example 17, N-(1-((2R,4R,5R)-3,3-difluoro-4-hydroxy-5-(hydroxymethyl)tetrahydrofuran-2-yl)-2-oxo-1,2-dihydropyrimidin-4-yl)-6-phenylpicolinamide]",>58.8,1.7,>30.3,3.3
"O=C(Nc1ccn([C@@H]2O[C@H](CO)[C@@H](O)C2(F)F)c(=O)n1)c1ccc(F)cn1 [Example 9, N-(1-((2R,4R,5R)-3,3-difluoro-4-hydroxy-5-(hydroxymethyl)tetrahydrofuran-2-yl)-2-oxo-1,2-dihydropyrimidin-4-yl)-5-fluoropicolinamide]",>11.4,8.8,>22.7,4.4
"Cn1cc(C(=O)Nc2ccn([C@@H]3O[C@H](CO)[C@@H](O)C3(F)F)c(=O)n2)cn1 [Example 15, N-(1-((2R,4R,5R)-3,3-difluoro-4-hydroxy-5-(hydroxymethyl)tetrahydrofuran-2-yl)-2-oxo-1,2-dihydropyrimidin-4-yl)-1-methyl-1H-pyrazole-4-carboxamide]",>8.3,12,14.7,6.8
